In PubChem BioAssay AID651820 (National Center for Advancing Translational Sciences (NCATS), 2012):
Screen size: about 340,000 compounds; about 12,000 (3.5%) were called active. Inconclusive means that the source gave no clear call. Such entries were picked first, then a sample of the others. The call rests on the fitted dose curve; in most records, active means well fitted inhibition curve with a large enough effect; inconclusive means small, poorly fitted or top-dose-only effect, or another doubt; inactive means no such curve, though single readings can be large or run the other way. No potency is given beside an inconclusive call; the fits are too rough.

Test: qHTS Assay for Inhibitors of Hepatitis C Virus (HCV)
Conditions: Huh7.5.1 HCVcc-Cre (HCVcc is cell-culture hepatitis C virus) infection, luciferase reporter, 44 h; activity change, negative = inhibition: at 41.8 µM (top of the series) unless noted
Outline: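 Cells (1,000/well) were plated 4 h before compound, then infected with HCVcc-Cre virus (~0.5 moi). After 44 h further culture, infection was read as luciferase luminescence following a 15 min substrate incubation at room temperature.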
On the % scale 0 is the no-effect control and ±100 the full control effect; potency means the concentration at half of the fitted maximal effect; tags describe the fitted curve by direction and shape.

Question: For `CCc1c(C)c(C#N)c2nc3ccccc3n2c1Cl`, which Potency is on record?
Answer: inconclusive [inhibitor, single point]

Question: Which Potency does the source give for `C=CCOc1ccccc1CN1CCC(Cc2ccccc2)CC1` here?
Answer: inconclusive [inhibitor, single point]

Question: With `O=C(CNC(=O)c1ccc(S(=O)(=O)N2CCCC2)cc1)N/N=C/c1ccccc1Cl` as the compound, how does the Potency read?
Answer: inconclusive [inhibitor, single point]

Question: For `CCOC(=O)c1[nH]c2cc(OC)c(OC)cc2c1NC(=O)CN1CCN(c2ccc(OC)cc2)C(C)C1` (stereo unspecified), which Potency is on record?
Answer: inconclusive [inhibitor, single point]

Question: For `O=C(CSc1ccc2c(c1)OCCO2)Nc1ncccc1O`, which Potency is on record?
Answer: inactive

Question: For `CN1C(=O)c2c(sc3c2CC(C)(C)SC3)N2CCN=C12`, which Potency is on record?
Answer: active: 11.2 µM

Question: For `COc1cc(C(=O)NCCCN2CCCC2=O)ccc1OCc1ccc(Cl)cc1Cl`, which Potency is on record?
Answer: inconclusive [inhibitor, single point]

Question: With `CC(C)(C)c1ccc(OCCC(=O)NCC(c2cccs2)N2CCOCC2)cc1` (stereo unspecified) as the compound, how does the Potency read?
Answer: inconclusive [inhibitor, partial curve]

Question: For `CCOC(=O)c1cn(-c2ccc(F)c(F)c2F)c2c(F)c(F)c(F)cc2c1=O`, which Potency is on record?
Answer: inactive

Question: For `Cc1cc(C)nc(SCc2cc(=O)c(OC(=O)c3ccco3)co2)n1`, which Potency is on record?
Answer: inconclusive [inhibitor, single point]

Question: Which Potency does the source give for `COc1ccc(/C=C(\C#N)c2c[nH]c3ccccc23)cc1` here?
Answer: inconclusive [inhibitor, partial curve]

Question: With `CCc1ccccc1NC(=O)CN1CCN(C(=O)c2ccc(OCc3cn4ccccc4n3)cc2)CC1` as the compound, how does the Potency read?
Answer: inconclusive [inhibitor, single point]

Question: With `CC(=O)N1c2ccc(S(=O)(=O)NCC3CCC(C(=O)Nc4ccc(C)cn4)CC3)cc2CC1C` (stereo unspecified) as the compound, how does the Potency read?
Answer: inconclusive [inhibitor, partial curve]

Question: Which Potency does the source give for `COc1ccccc1C(=O)NCC(=O)NNC(=O)C1COc2ccccc2O1` (stereo unspecified) here?
Answer: inactive

Question: With `C=CCn1c(=NC(=O)c2ccc(S(=O)(=O)N3CCCc4ccccc43)cc2)sc2cc(S(N)(=O)=O)ccc21` as the compound, how does the Potency read?
Answer: inconclusive [inhibitor, partial curve, poor fit]

Question: For `CN(C)S(=O)(=O)c1cccc(NC(=O)COC(=O)c2ccc3ccccc3n2)c1`, which Potency is on record?
Answer: inactive

Question: For `FC(F)(F)c1ccccc1NC(=S)Nc1cccc2cnccc12`, which Potency is on record?
Answer: inactive

Question: Which Potency does the source give for `Cc1ccc(/C=N/NC(=O)CCn2nc(C)cc2C)c(C)c1` here?
Answer: inconclusive [inhibitor, partial curve, poor fit]

Question: With `CCn1c(Cc2c(C)[nH]c3ccccc23)nnc1SCC(=O)NCc1ccco1` as the compound, how does the Potency read?
Answer: inactive

Question: With `Nc1ccccc1O` as the compound, how does the Potency read?
Answer: inactive

Question: For `COc1ccc(N2CCN(S(=O)(=O)CCNC(=O)COc3cccc(OC)c3)CC2)cc1`, which Potency is on record?
Answer: inactive

Question: With `COc1cc(/C=C2\CC/C(=C\c3ccc(OCCO)c(OC)c3)C2=O)ccc1OCCO` as the compound, how does the activity change, negative = inhibition read?
Answer: inconclusive: -38.8% [inhibitor]

Question: With `CC(C(=O)Nc1cccc(S(=O)(=O)N2CCOCC2)c1)N1CCN(c2ccc(F)cc2)CC1` (stereo unspecified) as the compound, how does the Potency read?
Answer: inconclusive [inhibitor, single point]

Question: Which Potency does the source give for `CC(Oc1ccccc1)C(=O)Nc1cccc(-c2nc3ccccc3[nH]2)c1` (stereo unspecified) here?
Answer: inactive

Question: For `CCOc1ccc(C2C3=C(Nc4nc(N)[nH]c(=O)c42)c2ccccc2C3=O)cc1` (stereo unspecified), which Potency is on record?
Answer: inconclusive [inhibitor, partial curve]

Question: Which Potency does the source give for `OC(c1ccc(F)cc1)C(CN1CCOCC1)c1ccccc1` (stereo unspecified) here?
Answer: inactive

Question: With `Cc1sc2nc(CN3CCCCC3)nc(N3CCN(C(=O)c4ccco4)CC3)c2c1C` as the compound, how does the Potency read?
Answer: inconclusive [inhibitor, single point]

Question: With `CC1(C)CC(N(Cc2ccco2)C(=O)Cc2ccccc2)CCO1` (stereo unspecified) as the compound, how does the Potency read?
Answer: inactive

Question: For `Cc1ccc(S(=O)(=O)Nc2cnc3ccccc3c2)cc1`, which Potency is on record?
Answer: inconclusive [inhibitor, single point]

Question: For `Cc1c(C(=O)N/N=C/c2cccs2)nnn1-c1nonc1N`, which Potency is on record?
Answer: inconclusive [inhibitor, single point]

Question: For `C=CCN(c1ccccc1Cl)S(=O)(=O)c1cccc(C(=O)NCCc2ccc(OC)cc2)c1`, which Potency is on record?
Answer: inconclusive [inhibitor, partial curve]

Question: For `O=[N+]([O-])c1ccc(Oc2ccc(Oc3ccc(C(F)(F)F)cn3)cc2)nc1`, which Potency is on record?
Answer: inconclusive [inhibitor, single point]

Question: Which Potency does the source give for `O=C(Nc1ccc(N2C(=O)CCC2=O)cc1Cl)c1cccs1` here?
Answer: inactive

Question: For `O=C(OCC(=O)N1CCCc2ccccc21)c1ccccc1OC(F)F`, which Potency is on record?
Answer: inactive

Question: For `N#CC1=C(N)OC2=C(C(=O)CC(c3ccccc3)C2)C1c1ccc2c(c1)OCO2` (stereo unspecified), which Potency is on record?
Answer: inactive

Question: For `Cc1ccc(CCNC(=O)c2nc(CS(=O)(=O)c3ccc(Cl)cc3)no2)cc1`, which Potency is on record?
Answer: inconclusive [inhibitor, partial curve]

Question: For `Oc1ccccc1/C=N/Nc1nc2ccccc2o1`, which Potency is on record?
Answer: inconclusive [inhibitor, partial curve]

Question: With `CC1CCCCC12NC(=O)N(CC(=O)N1CCN(C(=O)c3ccco3)CC1)C2=O` (stereo unspecified) as the compound, how does the Potency read?
Answer: inconclusive [inhibitor, single point]

Question: Which Potency does the source give for `CCn1c(Cn2nnc(-c3ccccc3)n2)nnc1SCc1ccc(Cl)c(Cl)c1` here?
Answer: inconclusive [inhibitor, single point]

Question: For `C[n+]1ccc(-c2cc[n+](C)cc2)cc1`, which Potency is on record?
Answer: inactive

Question: With `Cc1ccc(S(=O)(=O)CCC(=O)N2CCN(c3ccc(Cl)cc3)CC2)cc1` as the compound, how does the Potency read?
Answer: inconclusive [inhibitor, single point]

Question: For `COc1cc(OC)cc(C(=O)NNC(=O)CCC(=O)c2cccs2)c1`, which Potency is on record?
Answer: inconclusive [inhibitor, single point]

Question: With `C[n+]1cccc2cccc([O-])c21` as the compound, how does the Potency read?
Answer: inactive

Question: With `Cc1nc2ccccc2c(=O)n1/N=C/c1cc(Br)ccc1O` as the compound, how does the Potency read?
Answer: inconclusive [inhibitor, single point]

Question: For `CCCN1CCN(C(=O)c2cccc3c2C(=O)N(CCOC)C3)CC1`, which Potency is on record?
Answer: inactive

Question: Which Potency does the source give for `Cc1nc2ccc(C(=O)N3c4ccccc4CC3C)cc2s1` (stereo unspecified) here?
Answer: inconclusive [inhibitor, single point]

Question: For `COCCNC(=O)COc1ccc(Br)cc1Cl`, which Potency is on record?
Answer: inconclusive [inhibitor, single point]

Question: With `Cc1ccc(NC(=O)CCc2nnc3ccc(N4CCC5(CC4)OCCO5)nn23)cc1F` as the compound, how does the Potency read?
Answer: inactive

Question: For `CCOc1ccccc1OCC(=O)Nc1ccc(N2CCCCC2)cc1`, which Potency is on record?
Answer: inconclusive [inhibitor, single point]

Question: With `COc1ccccc1CNC(=O)CN1C(=O)NC(c2ccccc2)(c2ccccc2)C1=O` as the compound, how does the Potency read?
Answer: inconclusive [inhibitor, partial curve]

Question: With `CC(=NN1CC(=O)NC1=O)c1ccc([N+](=O)[O-])o1` as the compound, how does the Potency read?
Answer: inconclusive [inhibitor, single point]

Question: With `CCOC(=O)c1oc2cccc(O)c2c1CN(Cc1ccccc1)C(C)=O` as the compound, how does the Potency read?
Answer: inconclusive [inhibitor, partial curve, poor fit]

Question: For `CC1=Nc2ccccc2/C1=C/c1c(C)[nH]c2ccccc12`, which Potency is on record?
Answer: inconclusive [inhibitor, single point]

Question: For `CCc1ccc(Nc2nnc(SCC(=O)Nc3sccc3C(N)=O)s2)cc1`, which Potency is on record?
Answer: inconclusive [inhibitor, single point]

Question: Which Potency does the source give for `CCOC(=O)c1ccc(NC(=O)N2CCN(c3cccc(OC)c3)CC2)cc1` here?
Answer: inconclusive [inhibitor, full curve]

Question: For `CSc1nnc(Cn2c(=O)sc3ccccc32)n1C`, which Potency is on record?
Answer: inactive

Question: Which Potency does the source give for `O=c1ccc2ccc(OCCOc3cccc(Cl)c3)cc2o1` here?
Answer: inconclusive [inhibitor, single point]

Question: With `CCN1C(=O)[C@@H]2[C@@H](c3ccc(SC4CCCCC4)cc3)N3CCC[C@@]3(C(=O)OC)[C@@H]2C1=O` as the compound, how does the Potency read?
Answer: inactive

Question: With `COc1ccccc1-c1ccc(SCc2ccc([N+](=O)[O-])cc2)nn1` as the compound, how does the Potency read?
Answer: inconclusive [inhibitor, single point]

Question: With `Nc1ncnc2c1ncn2C1C=C(CO)C(O)C1O` (stereo unspecified) as the compound, how does the Potency read?
Answer: inconclusive [inhibitor, full curve, poor fit]

Question: For `O=C(c1oc2ccccc2c1CSCc1ccccc1)N1CCN(c2ncccn2)CC1`, which Potency is on record?
Answer: active: 11.2 µM

Question: With `Nc1nonc1-n1nnc(C(=O)N/N=C/c2cc(Br)ccc2O)c1CSC1=NCCS1` as the compound, how does the Potency read?
Answer: inconclusive [inhibitor, partial curve]

Question: Which Potency does the source give for `COc1ccc(S(=O)(=O)NCC(=O)N(CC(=O)NCc2ccco2)C2CCCC2)cc1` here?
Answer: inactive

Question: With `O=C(NC1(C(F)(F)F)Oc2ccccc2O1)N1CCC2(CC1)OCCO2` as the compound, how does the Potency read?
Answer: inconclusive [inhibitor, full curve]

Question: Which Potency does the source give for `COc1ccc(Cc2nnc(NC(=O)c3ccc(OC)c(OC)c3)s2)cc1` here?
Answer: inconclusive [inhibitor, single point]

Question: Which Potency does the source give for `COCCNCc1cc(C)n(-c2cc(S(=O)(=O)N3CCOCC3)ccc2N2CCCC2)c1C` here?
Answer: inactive

Question: For `CC(C)c1cccc(OCC(=O)Nc2ccc(S(=O)(=O)Nc3ccccn3)cc2)c1`, which Potency is on record?
Answer: inconclusive [inhibitor, partial curve]

Question: For `COCCCN(C(=O)c1ccco1)c1nc(-c2cc(OC)ccc2OC)cs1`, which Potency is on record?
Answer: inconclusive [inhibitor, partial curve]

Question: Which Potency does the source give for `O=C(Cc1coc2cc(O)ccc12)NNC(=O)c1ccc(Br)s1` here?
Answer: inactive

Question: Which Potency does the source give for `COC(=O)c1c(C)oc2ccc(NS(=O)(=O)c3cccs3)cc12` here?
Answer: inconclusive [inhibitor, single point]

Question: For `Cc1nn2c(COc3ccc(NC(=O)c4ccccc4Cl)cc3)nnc2c2ccccc12`, which Potency is on record?
Answer: inconclusive [inhibitor, single point]
